From PubChem BioAssay AID1645887 (National Center for Advancing Translational Sciences (NCATS), 2021)
“And” between values parts separate entries of the source, which are not always exact repeats. Identical values can stand only once. Among all 16,000 compounds or so, about 40 (0.2%) were called active. Not shown: some 1% with an inconclusive outcome. Calls come from the whole dose curve; as a rule, active = well fitted activation curve with a large enough effect; inconclusive = small, poorly fitted or top-dose-only effect, or another doubt; inactive = no such curve, though single readings can be large or run the other way. This is one part of the list.

Molecular target: Rap guanine nucleotide exchange factor 4 (Homo sapiens) (UniProt Q8WZA2)
Experiment: Validation qHTS for agonist of cAMP-regulated guanine nucleotide exchange factor 4 (EPAC2);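 note: exchange makes BODIPY-GDP fluorescence drop when released from Rap1B; series mostly up to about 150 µM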
Conditions: EPAC2 Rap1B BODIPY-GDP exchange, fluorescence; activation: stronger effect = higher value
Procedure, shortened: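 Signal normalized against 6.5 mM cAMP as agonist control. Mix of EPAC2 (100 nM), RAP1B-BODIPY-GDP (250 nM) and GDP (50 uM) was read kinetically at 480/540 nm, every 5 min over 30 min, after 5 min room-temperature incubation with compound.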
% is set by controls: 0 for no effect and ±100 for the full control effect.

UniProt Q8WZA2, sequence (Q8WZA2 whole entry, looked up): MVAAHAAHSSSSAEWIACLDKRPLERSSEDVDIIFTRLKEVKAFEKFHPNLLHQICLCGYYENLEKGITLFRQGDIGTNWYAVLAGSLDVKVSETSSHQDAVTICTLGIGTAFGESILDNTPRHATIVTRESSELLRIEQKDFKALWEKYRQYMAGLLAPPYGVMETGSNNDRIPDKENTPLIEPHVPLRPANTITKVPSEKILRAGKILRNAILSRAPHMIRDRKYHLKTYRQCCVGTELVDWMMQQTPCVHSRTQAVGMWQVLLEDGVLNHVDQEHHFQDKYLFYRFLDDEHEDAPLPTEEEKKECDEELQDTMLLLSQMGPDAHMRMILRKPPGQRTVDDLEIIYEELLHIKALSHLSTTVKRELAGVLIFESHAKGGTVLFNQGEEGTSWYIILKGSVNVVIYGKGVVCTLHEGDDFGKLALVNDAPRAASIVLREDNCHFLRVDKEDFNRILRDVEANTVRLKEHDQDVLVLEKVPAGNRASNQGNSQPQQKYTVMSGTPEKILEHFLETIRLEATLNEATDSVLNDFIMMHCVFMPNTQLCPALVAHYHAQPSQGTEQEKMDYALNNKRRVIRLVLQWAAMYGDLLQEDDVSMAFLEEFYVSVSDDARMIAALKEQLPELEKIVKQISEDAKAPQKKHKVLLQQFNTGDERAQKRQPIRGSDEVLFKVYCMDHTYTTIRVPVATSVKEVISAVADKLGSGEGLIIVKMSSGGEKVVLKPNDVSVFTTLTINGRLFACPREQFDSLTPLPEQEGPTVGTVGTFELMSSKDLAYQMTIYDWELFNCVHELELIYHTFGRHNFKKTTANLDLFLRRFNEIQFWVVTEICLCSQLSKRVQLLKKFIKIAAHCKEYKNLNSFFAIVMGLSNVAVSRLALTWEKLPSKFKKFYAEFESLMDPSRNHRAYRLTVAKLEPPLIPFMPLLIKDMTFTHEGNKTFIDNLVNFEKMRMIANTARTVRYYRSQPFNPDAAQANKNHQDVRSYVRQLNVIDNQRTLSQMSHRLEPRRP

activation, inactive:
Cc1oc(-c2cccc(NC(=O)c3ccccn3)c2)nc1CNC(=O)c1cc(F)c(F)cc1F 8.09%, Cc1ccc(O)c(N=Nc2ccccc2)n1 -27.6% and -17.8% and -43.7%, Cc1c(C)c2c(c(C)c1O)CCC(C)(COc1ccc(CC3SC(=O)NC3=O)cc1)O2 (stereo unspecified) -7.9% and -3.31%, CC(C)(C)NC[C@@H](O)COc1nsnc1N1CCOCC1 9.22%, COc1ccc2c(c1)OC/C(=C\c1ccc(OC)c(O)c1)C2=O -7.86%, O=C(O[C@H]1[C@H](Cc2ccccc2)NS(=O)(=O)[C@H]2C[C@@H]3C=C[C@]12O3)c1ccccc1Br -13.9%, COC(=O)C1=C(C)NC(C)=C(C(=O)OCCN2CCN(C(c3ccccc3)c3ccccc3)CC2)C1c1cccc([N+](=O)[O-])c1 (stereo unspecified) 4.05%, Cc1c(C(=O)NC2CCCC2)sc2ncnc(NCCN(C)C)c12 -10.3%, C=Cc1c(C)c2cc3[nH]c(cc4nc(cc5nc(cc1[nH]2)C(C)=C5CCC(=O)O)C(CCC(=O)O)=C4C)c(C)c3C=C -0.696% and 6.86% and 25.2%, O=C1CCC[C@@H]2CC(N(Cc3cc4ccccc4s3)c3ccccc3)C[C@@H]3CCN1[C@H]23 (stereo partly specified) -4.27%, COC(c1ccccc1)(c1ccccc1)[C@H](Oc1nc(C)cc(C)n1)C(=O)O -6.55%, CC1(C)[C@@H]2CC[C@@]1(C)C(=O)C2 -8.37% and -19.8%, CC(=O)OC1C[C@@]2(C)C(c3ccoc3)OC(=O)C3O[C@@]32[C@]2(C)C(OC(C)=O)CC3C(C)(C)C(OC(C)=O)CC(OC(C)=O)[C@@]3(C)C12 (stereo partly specified) 0.171%, COc1cc(-c2cc(C)c3c(OC)ccc(OC)c3n2)cc2c1OCCN(C(=O)C(C)c1n[nH]c(=O)c3ccccc13)C2 (stereo unspecified) -4.57%, COc1ccc2[nH]cc(CC(N)C(=O)O)c2c1 (stereo unspecified) 0.811% and -1.94%, OC1(c2cccnc2)CCN(Cc2ccc3c(c2)CN(Cc2ccc(Cl)cc2)CCO3)CC1 2.43%, COc1ccccc1C(=O)N[C@@H]1c2ccccc2C2(CCN(Cc3c(O)cccc3OC)CC2)[C@H]1O -0.604%, COc1ccc2[nH]cc(CCNc3cc(-c4ccccc4C)ncn3)c2c1 -5.84%, O=C(O)[C@@H](O)[C@H](O)[C@H](O)[C@@H](O)C(=O)O 6.86%, Cc1ncc(Cc2ccccc2)c(C2CCN(S(=O)(=O)C[C@]34CC[C@H](CC3=O)C4(C)C)CC2)n1 -1.79%, COc1ccc(C(=O)N2CCC3(CCN(CC(C)C)CC3)CC2)cc1 -2.26%, O=C(c1ccco1)N1CCC2(CCCN(Cc3ccncc3)C2)CC1 -18.9%, O=C(O)c1cc(=O)cc(C(=O)O)[nH]1 -27.8%, COc1cccc(-c2ccnc(-n3ncc(C(=O)N(C)CCc4ccccn4)c3C)n2)c1 -2.71%, CC(=O)O[C@@]1(C(C)=O)CCC2C3C=C(C)C4=CC(=O)CCC4(C)C3CCC21C (stereo partly specified) -1.95%, CN1CCC(=C2c3ccccc3CCc3cccnc32)CC1 4.83%, Cc1nn(C)cc1CNc1nc(C)c(-c2ccn(CC3COc4ccccc4O3)n2)s1 (stereo unspecified) 6.74%, Oc1cc(O)c2c(c1)O[C@H](c1ccc(O)c(O)c1)[C@H](O)C2 -22%, Nc1nc2ccc(OC(F)(F)F)cc2s1 -34.5% and -36.1% and -36%, COc1ccc2c(c1)c(CC(=O)O)c(C)n2C(=O)c1ccc(Cl)cc1 -5.24% [middle of 4 runs], CCSc1nnc(C(C)NC(=O)c2ccc(OC)cc2)n1C (stereo unspecified) -0.603%, c1csc(CNc2ccnc(-c3ccc4c(c3)OCO4)n2)c1 -8.61%, O=C1CCN(Cc2ccc(O)cc2)CCN1[C@H](CO)c1ccccc1 -1.51%, C(=C\c1ccccc1)/CN1CCN(C(c2ccccc2)c2ccccc2)CC1 -12.1% and -74.3%, Cn1c(=O)[nH]c(=O)c2[nH]cnc21 5.45%, Nc1nc2c(ncn2[C@@H]2O[C@H](COP(=O)(O)OP(=O)(O)OP(=O)(O)O)[C@@H](O)C2O)c(=O)[nH]1 (stereo partly specified) -4.41%, CCOC(=O)C1CCCN(C(=O)c2cnn(-c3nccc(-c4cc(C)sc4C)n3)c2C)C1 (stereo unspecified) -2.19%, O=C(O)[C@H](O)c1ccccc1 -7.94%, C=CS(=O)(=O)N(Cc1ccccc1)[C@H](CO)CC(C)C -29.5%, COc1ccc(C(=O)N2CCC3(CC2)c2ccccc2[C@@H](NC(=O)c2ccccn2)[C@@H]3OC)c(O)c1 3.44%, CN1CCN(c2ncc3ncc(=O)n(Cc4ccc(F)cc4)c3n2)CC1 -10%, O=C(c1cccc(F)c1)N1CCC[C@@]2(CCN(c3ccccn3)C2)C1 -7.52%, Cc1cnc(-n2ncc(C(=O)NCCCc3ccncc3)c2C)nc1-c1ccc(F)cc1 -8.15%, CCC1CN(CCNC(=O)c2ccc(N3CCOCC3)cc2)Cc2cc(OC)ccc2O1 (stereo unspecified) 4.69%, O=c1[nH]cnc2c1nc(Cl)n2C1OC(CO)C(O)C1O (stereo unspecified) -1.6%, CCCCCCCCCCCCCCCC(=O)O[C@@H]1CC(C)=C(/C=C/C(C)=C/C=C/C(C)=C/C=C/C=C(C)/C=C/C=C(C)/C=C/C2=C(C)C[C@@H](OC(=O)CCCCCCCCCCCCCCC)CC2(C)C)C(C)(C)C1 -66.8%, O=C(C1CCCCC1)N1CC(=O)N2CCc3ccccc3C2C1 (stereo unspecified) -5.05% and 12.1% and -16.6%, COc1ccc(NC(=O)N2CC3(CCN(C(=O)c4cc(C(F)(F)F)cc(C(F)(F)F)c4)CC3)C2)cc1 -31.4%, C[C@@H]1CCC(=O)N(C[C@@H](C)CC#N)CC1 6.58%, COC(=O)N1CCC2(CCCN(Cc3ccccc3OC)C2)CC1 1.72%, Cn1c2ccccc2c2cc(C(=O)N3CCOc4ccc(C(C)(O)CCn5cccn5)cc4C3)ccc21 (stereo unspecified) -8.04%, NCC(O)COc1cccc2ccccc12 (stereo unspecified) 2.59%, Fc1ccc(Nc2ncncc2-c2ccoc2)cc1 4.95%, O=S(=O)(O)c1ccc(O)cc1 -1.89%, Cc1ccccc1CNc1ncnc2c1ncn2C1OC(CO)C(O)C1O (stereo unspecified) -0.0522%, CC(O)CO (stereo unspecified) -2.59%, CC1(C)CCCC2(C)C3C(O)CC2(C)C(O)C31 (stereo unspecified) -10.7%, COCCNc1ncnc2ccc(-c3c(C)noc3C)cc12 -15.7%, COc1ccc(CNCC(O)COc2ccc3[nH]c(=O)ccc3c2)cc1OC (stereo unspecified) -9.54%, Cc1cccnc1-c1cccc2c1OC(CNC(=O)Cn1cncn1)C2 (stereo unspecified) 2.99%, Cc1oc(-c2ccccc2NC(=O)c2ccsc2)nc1CN(C)Cc1ccc2c(c1)CCCN2C 13.6%, Cc1cnc(SCC2CCCO2)nc1C1CCCN(C(=O)c2ccc(S(N)(=O)=O)cc2)C1 (stereo unspecified) -1.51%, C/C=C(\C)C(=O)OC1c2c(ccc3ccc(=O)oc23)OC(C)(C)C1OC(C)=O (stereo unspecified) -1.12%, CC(=O)NCCCS(=O)(=O)O -5.02%, COc1ccccc1-c1ccnc(-n2ncc(C(=O)NC3CCCN(Cc4ccccc4)C3)c2C)n1 (stereo unspecified) -10.1%, O=P(O)(O)O 14.3%, COc1ccc(NC(=O)N2CC[C@@]3(CCCN(C(=O)c4cc(C(F)(F)F)cc(C(F)(F)F)c4)C3)C2)cc1 -45.4%, O=C(c1cccc(N2CCCC2=O)c1)N1CCC(Oc2cccc(CN3CCN(c4ccccn4)CC3)c2)CC1 -26.9%, NC(N)=NC(N)=NCCc1ccccc1 -9.72% and 1.08%, COc1ccccc1-c1cc(N(C)Cc2ccco2)ncn1 4%, Cn1c(=O)c(-c2cccc(Cl)c2)nc2cncnc21 4.54%, c1ccc2c(NC3CC3)nc(-c3ccoc3)nc2c1 -14.5%, CCOC(=O)O[C@]1(C(=O)COC(=O)CC)CC[C@H]2[C@@H]3CCC4=CC(=O)C=C[C@]4(C)[C@H]3[C@@H](O)C[C@@]21C -25.8%, Cc1nc2cnc(N(C)C)nc2n(C[C@H]2CCCO2)c1=O 3.26%, O=C(NCC1Cc2cccc(-c3ccccn3)c2O1)c1cnn2cccnc12 (stereo unspecified) -1.78%, Cc1cnc(SCc2ccccn2)nc1C1CCCN(C(=O)c2ccc3[nH]c(C)c(C)c3c2)C1 (stereo unspecified) -8.56%, Cc1noc(C)c1-c1nc(N2CCN(C)CC2)c2ccccc2n1 -8.41%, CN(Cc1ccco1)c1cc(-c2ccccc2C(F)(F)F)ncn1 -0.577%, CC(C)C[C@H](NC(=O)[C@H](O)[C@H](N)Cc1ccccc1)C(=O)O -25.6%, CCC1CN(CC(=O)NC(c2ccccn2)C(F)(F)F)Cc2cc(OC)ccc2O1 (stereo unspecified) -15.1%, N#Cc1cc2c(OCC(O)CN3CCN(C(c4ccccc4)c4ccccc4)CC3)cccc2[nH]1 (stereo unspecified) 3.77% and 15.8%
